Assay results reported in PubChem BioAssay AID1508624 (National Center for Advancing Translational Sciences (NCATS), 2021).
The whole screen tested about 48,000 compounds, of which about 120 (0.25%) were called active. Not shown: some 4% with an inconclusive outcome. Calls follow the shape of the dose curve; as a rule, active = well fitted activation curve with a large enough effect; inconclusive = small, poorly fitted or top-dose-only effect, or another doubt; inactive = no such curve, though single readings can be large or run the other way. The list shows a part of the results.

test: Primary qHTS for Identification of Small Molecule Activators of Huntingtin-Antisense Promoter Activity; conditions: HEK293 HTT-AS promoter firefly luciferase reporter, 24 h; series mostly up to 57.5 µM; activity change, positive = activation: at the top concentration; also: nearly all actives have a fitted effect of over 55% in size
Procedure, shortened: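 HEK293 luciferase promoter-reporter cells (2,500/well) plated 24 h, then compounds added at up to 57.5 uM final for 24 h at 37 °C. Firefly luminescence by Dual-Glo, normalized to vehicle (0%) and zero RLU (-100%).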

Activity change, positive = activation, inactive:
CCN(c1ccccc1)S(=O)(=O)c1nnc(NC(=O)COc2ccccc2F)s1 -27.8%, NC[C@H]1O[C@H](O[C@H]2[C@H](O[C@@H]3O[C@H](CO)[C@@H](O)[C@H]3O)C(O)[C@H](N)C[C@@H]2N)[C@H](N)[C@@H](O)[C@@H]1O (some centres undefined) -3.51% [at 11.5 µM, percent change from vehicle, -100% = no light], COc1ccc(CNC(=O)C(=O)NCC(c2cccnc2)N2CCN(c3ccccc3F)CC2)cc1 (centres undefined) -47.9%, COc1ccc(-c2[nH]ncc2C(=O)NCc2ccccc2OC)cc1 -10.2%, Cc1ccc(NC(=O)CN(C)S(=O)(=O)c2cccc3nsnc23)c(C)c1 -0.623%, CC(=O)Nc1ccc(S(=O)(=O)Nc2ccc3c(c2)n(C)c(=O)n3C)c(C)c1 -14.1%, Cc1cc(C)n(-c2nc3cc(Cl)c(Cl)cc3nc2Nc2c(C)cccc2C)n1 -7.68%, Cc1cccc(CNC(=O)c2ccc(Cn3c(SCc4ccccc4)nc4cccnc43)cc2)c1 3.45%, CCc1ccc2oc(C(=O)Nc3nc(-c4ccccc4)ns3)c(C)c2c1 0.514%, Cc1ccc(OC(C)C(=O)NCC2(N3CCOCC3)CCCCC2)cc1C (centres undefined) -16.6%, Cc1c(C(=O)N(C)C)sc2c1c(=O)n(-c1ccc(F)cc1)c(=O)n2CC(=O)N(C)c1ccccc1 -12.8%, COc1ccccc1CNC(=O)CCC1N=C2c3ccccc3N=C(SCC(=O)NCCc3ccccc3)N2C1=O (centres undefined) 0%, COc1ccc(Cl)cc1NC(=O)c1nc(S(C)(=O)=O)ncc1N(Cc1ccc(C)cc1)Cc1ccco1 -15.3%, Cc1cc2oc(C(=O)Nc3ccc(S(=O)(=O)Nc4onc(C)c4C)cc3)cc(=O)c2cc1C -1.36%, Cc1ccc(C)c(NC(=O)Cn2c(=O)oc3cc(S(=O)(=O)NCc4ccccc4)ccc32)c1 -32.9%, CCOc1ccc(-n2c(SC(C)C(=O)OC)nc3c([nH]c4ccccc43)c2=O)cc1 (centres undefined) -19.6%, NC[C@H](O)c1ccc(O)c(O)c1, CCN(CC)CCNC(=O)c1ccc(N)cc1 -0.0711%, O=C(CSc1nc(=O)[nH]c2c1CCCC2)NCc1ccc(Cl)cc1 -2.54%, CCOC(=O)c1c(NC(=O)/C=C/c2ccc(OC)cc2)sc2c1CCC(C)C2 (centres undefined) -22%, Cc1ccccc1C(=O)Nc1sc2c(c1C(=O)N1CCC(C)CC1)CCCC2 -12%, CCN(CCCNC(=O)c1cc2c(=O)[nH]c3ccc(C)cc3c2s1)Cc1ccccc1 -25.8%, Cc1cccc(Nc2nc3ccccc3n3c(N)nnc23)c1 0.629%, Cc1cc2n(n1)CCCN2C(=O)Nc1cccc(C)c1C -13.3%, OC1(c2ccccc2)CCNCC1 -3.02%, Cc1ccc(Cn2c(=O)c3cccnc3n(Cc3ccc(F)cc3)c2=O)cc1 -15.9%, COc1cccc(N2CCN(c3ncc4c(n3)CCN(Cc3ccc(Br)cc3)C4)CC2)c1 -85.4%, COc1ccccc1/C=C/c1nc(C#N)c(NC(C)c2ccccc2)o1 (centres undefined) -18.2%, CC(=O)c1ccc(N2CCN(C(=O)Cn3ncc4c3-c3ccccc3OC4)CC2)cc1 -34.1%, CCOc1ccc(NC(=O)c2cnn3c(C(F)F)cc(-c4ccc(C)cc4)nc23)cc1 -15.4%, Cc1c(Cl)cccc1NC(=O)CN1C(=O)CSc2ccc(S(=O)(=O)N3CCCC3)cc21 -35.8%, CC(=O)c1cc(-c2ccc(F)cc2)n(CCC(=O)NCc2ccc(C)cc2)c1C -22.8%, CCc1ccc(Sc2cc(C(=O)NCCCN3CCCC(C)C3)c3ccccc3n2)cc1 (centres undefined) -20.9%, CC(C)(C)C(=O)OCOC(=O)C1N2C(=O)CC2S(=O)(=O)C1(C)C (centres undefined) -2.42%, Cc1ccc(NC(=O)CN2CCN(C3CCCCC3)C(=O)C2=O)cc1 -5.61%, Cc1ccccc1CCNCc1c(C(=O)O)c(C)n(Cc2c(F)cccc2Cl)c1C -9.34%, O=c1cc(COc2cccc(C(F)(F)F)c2)nc2sc3c(n12)CCCC3 -11.6%, Cc1ccc(-n2ncc(C(=O)N3CCN(C4CCCCC4)CC3)c2C2CCN(C(=O)OC(C)(C)C)CC2)cc1 -5.49%, CCOC(=O)c1c(NC(=O)c2ccc(S(=O)(=O)N(C)C)cc2)sc2c1CCN(C)C2 -17.8%, CCCCCCNc1ncnc2c1sc1nc(N3CCOCC3)c3c(c12)CCCC3 -5.29%, COc1ccc(NC(=O)Cn2c(=O)n(CC3CCCO3)c(=O)c3ccccc32)cc1 (centres undefined) -14%, CCCCSCCCNC(=O)c1cc(-c2cccnc2)nc2ccc(S(=O)(=O)N3CCC(C)CC3)cc12 -4.08%, Cc1oc2ccc(O)c(CN3CCN(Cc4ccccc4)CC3)c2c1C(=O)Nc1cccc(Cl)c1C -2.86%, CCCN(C(=O)c1nn(-c2ccc(C)cc2)c(=O)c2c1c1ccccc1n2C)c1ccccc1C -4.36%, O=C(Nc1ccc(Oc2ccccc2)cc1)C1CCN(S(=O)(=O)c2ccccc2)CC1 -24.7%, Cc1cccc(NS(=O)(=O)c2nnc(NC(=O)C3CCCCC3)s2)c1 -25.8%, COc1cc2[nH]c(=O)n(Cc3ccc(C(=O)N4CCN(c5cccc(C)c5C)CC4)cc3)c(=O)c2cc1OC -17.2%, COc1ccc(CNC(=O)c2cc(Nc3ccc(OC)cc3OC)nc3ccccc23)cc1 6.78%, CCOC(=O)c1ccc(NC(=O)c2ccc3c(c2)CCN3S(=O)(=O)c2ccc(Cl)cc2)cc1 -7.46%, COc1ccc(CCNC(=O)Cn2nnc(-c3cccc(C(F)(F)F)c3)n2)cc1OC -6.95%, CC(CNC(=O)c1ccc(Cn2c(SCc3ccccc3)nc3cccnc32)cc1)c1ccccc1 (centres undefined) -3.47%, COc1ccc2oc(=O)cc(CN3CCN(C(=O)c4ccccc4)CC3)c2c1 -10.5%, O=C(Nc1ccc(O)c(-c2nc3ccccc3o2)c1)c1cccs1 6.9%, Cc1ccc(C)c(CN2C(=O)c3ccccc3Sc3ccc(C(=O)NCCCOC(C)C)cc32)c1 -37.5%, O=C(CSc1n[nH]c(-c2ccccc2Cl)n1)N1CCN(c2ccc(F)cc2)CC1 -21.4%, CCOC(=O)c1ccc(N2C(=O)c3n[nH]c(C)c3C2c2ccc(C(C)C)cc2)cc1 (centres undefined) -4.3%, CC(C)c1nn2c(=O)cc(COC(=O)c3ccc(NC(=O)c4ccccc4Cl)cc3)nc2s1 -4.12%, CC(C)NC(=O)c1nn(C)c2c1CS(=O)(=O)c1ccccc1-2 5.16%, COC(=O)c1cc(Cl)ccc1NC(=O)Cn1c(C)cc(C)c(C#N)c1=O -8.37%
